Data on two compounds can be found in a compilation of properties of binary mixtures (doi:10.1021/je900906j).

Molecules are shown by their SMILES. Some of these densities may be calculated back from excess volumes.

This data set can be described thus: xn = mol fraction of the nth substance listed. The settings on record: 101.3 kPa.

As for `CCCCCCCC[N+](C)(CCCCCCCC)CCCCCCCC.O=S(=O)([N-]S(=O)(=O)C(F)(F)F)C(F)(F)F` + CCOC(C)=O, the mass density is, setting by setting: (298.15 K, x2 = 0.4991) 1081.5 kg/m3; (298.15 K, x2 = 0.6429) 1062.7 kg/m3; (303.15 K, x2 = 0.4991) 1076.9 kg/m3; (303.15 K, x2 = 0.6429) 1058.2 kg/m3; (313.15 K, x2 = 0.0923) 1093.3 kg/m3; (313.15 K, x2 = 0.4991) 1069.3 kg/m3. The mass density (313.15 K, x2 = 0.6429) came out at 1050.4 kg/m3.
Turning to `CCCCCCCC[N+](C)(CCCCCCCC)CCCCCCCC.O=S(=O)([N-]S(=O)(=O)C(F)(F)F)C(F)(F)F` + COC(C)=O, the mass density reads like this: (298.15 K, x2 = 0.3341) 1098.9 kg/m3; (298.15 K, x2 = 0.6005) 1081.4 kg/m3; (298.15 K, x2 = 0.8001) 1048.5 kg/m3; (298.15 K, x2 = 0.9) 1010.6 kg/m3; (303.15 K, x2 = 0.2291) 1100.2 kg/m3; (303.15 K, x2 = 0.3341) 1096.5 kg/m3. Moreover, the mass density is, setting by setting: (303.15 K, x2 = 0.8001) 1046 kg/m3; (303.15 K, x2 = 0.9) 1006.9 kg/m3; (313.15 K, x2 = 0.2291) 1093.2 kg/m3; (313.15 K, x2 = 0.3341) 1090.5 kg/m3; (313.15 K, x2 = 0.5) 1080.5 kg/m3; (313.15 K, x2 = 0.8001) 1037 kg/m3. Where the note is “313.15 K, x2 = 0.9”, this compound returned a mass density of 998.3 kg/m3.
